Screen size: about 52,000 compounds; about 1,700 (3.3%) were called active. Rule as the data show it: active = survival mostly below about 52% (no sharp cut-off); inactive = mostly above about 56%. The list shows a part of the results.

The values below come from PubChem BioAssay AID463173 (ICCB-Longwood Screening Facility, Harvard Medical School, 2010).

The assay concerns Wild type. The assay is described as follows: growth inhibition of S. aureus wild type versus tarO mutant, primary screen, teichoic acid synthesis inhibitors, RN4220, OD600 (AID 463173). Particulars: S. aureus RN4220 wild type/DeltatarO growth, OD600, 18 h, active compounds read low, screened at 18.75 µg/mL (by protocol).
On to `N=c1c(C(=O)NCC2CCCO2)cc2c(=O)n3ccccc3nc2n1CCCO` (centres undefined), for which the survival is inactive: 71%. Turning to `Cc1ccccc1OCC(=O)Nc1ccccc1C(=O)OCc1cc(=O)n2ccsc2n1`, the survival was inactive: 133%. As for `Cc1cc(C(F)F)n2nc(C(=O)Nc3cccc(Cl)c3C)nc2n1`, the figure is inactive: 79%; as for `Cc1nn(CCCC(=O)NCCc2ccc(Cl)cc2)c(=O)c2c1sc1ccccc12`, inactive: 80%; as for `O=C(Nc1ccc(-n2nncc2-c2ccccc2)cc1)c1cccc(F)c1`, inactive: 152%.

As for `Cn1ncc2c(NCc3ccccc3Cl)nc(NCCO)nc21`, the survival is inactive: 80%. As for `COc1ccc2c(c1)c1c(c(=O)n(-c3ccccc3)c(=O)n1CC(=O)NCCC1=CCCCC1)n2C`, the survival is inactive: 66%.

As for `CCOc1ccc(CNC(=O)C2CCN(S(=O)(=O)c3cn(C)cn3)CC2)cc1`, the survival is inactive: 80%. With `O=C(CN1C(=O)CCn2nc(-c3ccccc3)cc21)NCc1ccc(F)cc1` the figure was inactive: 73%; with `N#CC1=C(N)N2C(=C(C#N)C13CCCC3)Nc1ccccc12`, inactive: 113%. As for `Cn1nc(C(=O)NCc2cccc(Cl)c2)c2c1-c1ccccc1S(=O)(=O)C2`, the figure is inactive: 80%. Consider `CCC(OC(=O)CN1C(=O)c2ccccc2C1=O)C(=O)NC1CCCC1` (centres undefined), for which the survival was inactive: 98%. For the molecule `CCOC(=O)Cn1c(=O)n(C2CCCCC2)c2nc(-c3ccc(CC)cc3)nc(C(N)=O)c21`, the survival was inactive: 82%.

For `Cc1cc(C)cc(NC(=O)Cn2c(=O)n(-c3cc(C)cc(C)c3)c(=O)c3oc4ccccc4c32)c1`, the survival is inactive: 83%.

In the case of `COc1cc(CN2CCc3nc(N4CCN(c5ncccn5)CC4)ncc3C2)cc(OC)c1OC`, the survival is inactive: 73%. Regarding `COc1ccc(-n2ccnc2SCC(=O)Nc2nnc(C)s2)cc1`, the survival was inactive: 124%. As for `Cc1ccccc1N(C)S(=O)(=O)c1nnc(NC(=O)c2ccccc2F)s1`, the figure is inactive: 33%.

Regarding `COCCNc1c(-c2ccccc2)nc2cc(C)ccn12`, the survival was inactive: 105%. Regarding `COc1cccc(Cn2c(CNC(=O)CCc3ccccc3)nc3cccnc32)c1`, the survival was inactive: 72%. With `Cc1ccc(NC(=O)C(=O)NCCc2sc(-c3ccc(Cl)cc3)nc2C)cc1C`, the survival is inactive: 126%.

Take `COc1cccc(CNC(=O)CCn2nc(C)c3c(C)n(-c4ccccc4)nc3c2=O)c1`: the survival is inactive: 82%. As for `CN(c1ccccc1)S(=O)(=O)c1nnc(NC(=O)C2CCCCC2)s1`, the figure is inactive: 87%; as for `CC(C)(C)OC(=O)N1CCN(c2ccc(NC(=O)Cn3nnc(-c4ccccc4)n3)cc2)CC1`, inactive: 110%; as for `Cc1c(Cl)cccc1NC(=O)CCS(=O)(=O)c1ccc2c(c1)oc(=O)n2C`, inactive: 78%. With `CCOC(=O)c1c(C)c(C(=O)NCc2ccc(OC)cc2)c(C)n1CC` the figure was inactive: 94%; with `COc1ccc(NCc2cc3cc4c(cc3n(CC(=O)Nc3ccc(F)cc3)c2=O)OCCO4)cc1`, inactive: 77%. `COc1cccc(C(=O)N(Cc2cccnc2)c2nc3c(OC)ccc(C)c3s2)c1OC`: the survival was inactive: 69%. With `COc1ccc(C2(C(=O)NC(C)C)CCOCC2)cc1`, the survival was inactive: 88%. Take `O=C(CSc1nc2ccccc2nc1Cc1ccc(Cl)cc1)N1CCCc2ccccc21`: the survival was inactive: 68%. As for `CCOc1cc(C2CC(=O)Nc3cc4c(cc32)OCCO4)ccc1O` (centres undefined), the figure is inactive: 78%. As to `COC(=O)C(C)Sc1nc2c(cnn2-c2ccc(F)cc2)c(=O)[nH]1` (centres undefined), the survival is inactive: 89%. With `N#Cc1c(NC(=O)c2cccnc2)sc2c1CCCC2` the figure was inactive: 108%. With `CCOc1ccccc1NS(=O)(=O)c1ccc2c(c1)CC(C)N2C(=O)C1CCC1` (centres undefined) the figure was inactive: 74%.

For `Cc1ccc(OCCn2c(CCNC(=O)C3CCCCC3)nc3ccccc32)cc1`, the survival was inactive: 65%. As for `COc1cccc(C(=O)NCc2cn3ccccc3n2)c1`, the figure is inactive: 86%; as for `c1cncc(-c2nc(NCc3ccco3)c3ccccc3n2)c1`, inactive: 119%.

In the case of `Cc1ccc2c(=O)cc(C(=O)Nc3ccc(S(=O)(=O)N(C)Cc4ccccc4)cc3)oc2c1C`, the survival is inactive: 109%. With `COc1ccc(S(=O)(=O)N2CCN(C)CC2)c(Cl)c1Cl` the figure was inactive: 104%; with `O=C(NCCCO)C(=O)NCC(c1ccc2c(c1)OCO2)N1CCOCC1` (centres undefined), active: 10%; with `CCOc1ccc(OCC)c(NS(=O)(=O)c2c(C(=O)N3CCCCCC3)c(C)n(C)c2C)c1`, inactive: 71%. With `CCOc1ccc(C(=O)c2cn(CC(=O)Nc3ccc(F)cc3)c3cc4c(cc3c2=O)OCCO4)cc1` the figure was inactive: 131%; with `O=C(CSc1nnc(-c2ccccc2)c(-c2ccccc2)n1)NC1CCCC1`, inactive: 73%. `O=C(O)C1C2C=CC(C2)C1C(=O)N1CCN(Cc2ccccc2)CC1` (centres undefined): the survival was inactive: 94%. With `CCOC(=O)C1CCCN(S(=O)(=O)c2cc3c4c(c2)CC(=O)N4CCC3)C1` (centres undefined) the figure was inactive: 74%.

With `COc1ccc(C)cc1NC(=O)C1COc2ccccc2C1` (centres undefined), the survival was inactive: 82%. As for `Fc1ccc(-n2cc(-c3ccccc3)c3c(NCCc4ccccc4)ncnc32)cc1`, the figure is inactive: 73%; as for `CCc1ccc(NC(=O)Cn2c(=O)n(CCCCC(=O)NCCc3ccccc3)c(=O)c3ccccc32)cc1`, inactive: 97%; as for `CCC(C)(C)NC(=O)C1CCN(S(=O)(=O)c2c(C)noc2/C=C/c2ccc(C)cc2)CC1`, inactive: 64%. With `COc1ccc(NC(=O)C2=CC(c3ccc4c(c3)OCO4)=NS(=O)(=O)N2C)cc1` the figure was inactive: 94%; with `COc1cccc(CNC(=O)c2oc3c(c2C)-c2nn(Cc4cccc(Cl)c4)cc2CC3)c1`, inactive: 99%; with `CCOC(=O)c1c(NC(=O)COc2c(C)cc(Cl)cc2Cl)sc2c1CCCC2`, inactive: 53%. As for `COc1ccc(-c2noc(CC(=O)Nc3ccc(Br)cc3C)n2)cc1`, the figure is inactive: 98%; as for `COc1ccc(S(=O)(=O)NCC(c2ccc(N(C)C)cc2)N2CCCC2)cc1` (centres undefined), inactive: 73%; as for `O=C1CCS(=O)(=O)CC1`, inactive: 104%. Consider `Cc1cc(C)c(/C=C/c2onc(C)c2S(=O)(=O)N2CCC(C(=O)N(C)Cc3ccccc3)CC2)c(C)c1`, for which the survival is inactive: 68%. Take `Cc1ccc(NC(=O)Nc2nnc(N(C)C3CCCCC3)s2)c(Cl)c1`: the survival is inactive: 95%. In the case of `COC(=O)C[n+]1ccc(C)cc1`, the survival was inactive: 99%.

Turning to `Cc1ccc(-n2c(=O)c3c4c(sc3n(Cc3ccccc3C)c2=O)CCC4)cc1C`, the survival is inactive: 96%. As for `Cc1ccccc1C(=O)Nc1nc2nc(-c3ccccc3)cc(=O)n2[nH]1`, the figure is inactive: 88%; as for `CCOC(=O)C1(CC)CC(C)(c2csc(N)n2)OC1=O` (centres undefined), inactive: 108%; as for `COC(=O)CN(c1ccc(C)c(C)c1)S(C)(=O)=O`, inactive: 98%. With `O=C(Nc1ccc2c(c1)OCO2)c1cc(-c2ccc(Br)cc2)on1` the figure was inactive: 89%; with `Clc1cccc(-n2cc(-c3ccccc3)c3c(N4CCCCC4)ncnc32)c1`, inactive: 70%; with `CCN1C(C(=O)c2ccccc2)=C(OC(=O)c2ccc(OC)cc2)c2ccccc2S1(=O)=O`, inactive: 79%. With `Cc1ccc(Cn2c(=N)n(CC(=O)c3ccccc3)c3ccccc32)cc1` the figure was inactive: 107%; with `Cc1ccc(NC(=O)c2oc3ccc(S(=O)(=O)N4CCCCC4)cc3c2C)cc1Cl`, inactive: 83%; with `CCN(Cc1ccccc1)C(=O)CCc1c(C)nc2c(c(C)nn2-c2ccc(C)c(C)c2)c1C`, inactive: 75%. Take `CCOC(=O)N1CC=C2C(C#N)=C(N)C(C#N)(C#N)C(Cc3ccccc3)C2C1` (centres undefined): the survival was inactive: 111%. With `CCc1cccc(C)c1NC(=O)Cn1cc2c(n1)CCCC2` the figure was inactive: 85%; with `Cn1c(=O)c2c(-c3ccc(Br)cc3)n(CCc3ccccc3)cc2n(C)c1=O`, inactive: 47%. On to `Cc1ccc(CCNC(=O)c2nn(C)c3c2CSc2ccccc2-3)cc1`, for which the survival is inactive: 90%.

As for `CCCCOc1ccc(CNC(=O)CN2CCSc3ccccc32)cc1`, the survival is inactive: 69%.

With `CCN(CC)c1nc(OCC(F)(F)F)nc(N(c2ccccc2)c2ccccc2)n1`, the survival was inactive: 92%.

In the case of `O=S(=O)(c1ccc(Br)cc1)c1nc(-c2ccco2)oc1SCc1ccccc1Cl`, the survival is inactive: 137%. As for `CCCNC(=O)C1CCC(Cn2c(=O)c3sccc3n(Cc3cccc(OC)c3)c2=O)CC1` (centres undefined), the survival is inactive: 60%.

For the molecule `CCC(C(=O)N1CCN(c2cccc(C)c2C)CC1)n1nc(C)c2sc3ccccc3c2c1=O` (centres undefined), the survival was inactive: 76%.

On to `CCn1nnc2cc(C(=O)Nc3cccc(Cl)c3)ccc21`, for which the survival was inactive: 87%.

`Cc1nc2nc(NC(=O)c3cccc(Cl)c3)[nH]n2c(=O)c1Cc1ccccc1`: the survival was inactive: 117%. As for `COc1cccc(CNC(=O)CCn2c(=O)c3cccn3c3ccc(F)cc32)c1OC`, the figure is inactive: 77%. As for `COc1ccc(-n2nc(C(=O)N(C)c3cccc(C(F)(F)F)c3)c3c4ccccc4n(C)c3c2=O)cc1`, the survival is inactive: 129%. In the case of `Cc1ccc(NC(=O)CCn2c(=O)c3cccn3c3ccccc32)c(Cl)c1`, the survival was inactive: 73%.

`COc1ccc(CCNC(=O)CCc2c(C)nc3c(c(C)nn3-c3ccc(C)c(C)c3)c2C)c(OC)c1OC`: the survival was inactive: 91%. Regarding `CCOC(=O)C1CCC(CN(Cc2ccccc2)S(=O)(=O)c2ccc(Cl)cc2)CC1` (centres undefined), the survival is inactive: 82%.

As to `CCOc1ccc(-n2c(-c3ccc(C)cc3)nc3c(cnn3-c3ccccc3)c2=O)cc1`, the survival is inactive: 63%. With `CCN(CC)CCC(=O)c1ccc(OC(C)C)cc1` the figure was inactive: 106%. As for `COc1ccc(CCNC(=O)Cn2cc(C(=O)c3ccccc3)c(=O)c3ccc(C)nc32)cc1OC`, the figure is inactive: 135%; as for `CCOC(=O)c1c(S(=O)(=O)N2CCC(C(=O)Nc3ccccc3OC)CC2)c(C)n(CC)c1C`, inactive: 71%.

Turning to `CCn1cc(C(=O)NCCc2ccc(C)cc2)c(=O)c2cc(S(=O)(=O)N(C)C)ccc21`, the survival was inactive: 84%.

On to `Cc1cc(C)c(Cn2c3ccccc3c3cnn(CC(=O)N4CCCCC4)c(=O)c32)c(C)c1`, for which the survival was inactive: 125%.
